Assay results: the BET-seq Pho4 binding data (Le et al. 2018)
The list shows a part of the results. These are noisy estimates, calculated here from bound and input reads.

Each sequence was assayed against T1, Pho4 (S. cerevisiae) (UniProt P07270) (assay: relative binding free energy (BET-seq); higher = weaker binding). Conditions: reference: library average.
T1 sequence: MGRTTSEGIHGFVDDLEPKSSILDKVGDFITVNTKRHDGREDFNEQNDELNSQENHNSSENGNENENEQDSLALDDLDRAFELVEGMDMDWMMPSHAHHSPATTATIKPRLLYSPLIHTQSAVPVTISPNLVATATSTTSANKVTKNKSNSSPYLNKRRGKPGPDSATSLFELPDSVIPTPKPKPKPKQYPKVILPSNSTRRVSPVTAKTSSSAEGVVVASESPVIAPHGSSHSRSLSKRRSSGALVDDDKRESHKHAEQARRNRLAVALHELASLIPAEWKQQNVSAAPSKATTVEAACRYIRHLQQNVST

| Sequence | relative binding free energy [kcal/mol] |
| --- | --- |
| TCTTGCACGTGATGTA | 0.14 |
| AGAGACACGTGTTGAT | 0.05 |
| CTATTCACGTGTGTGA | 0.23 |
| GCGAGCACGTGTTGAG | -0.07 |
| TTCTTCACGTGTCATT | 0.35 |
| GGCGGCACGTGTTATT | -0.02 |
| GTCTTCACGTGGTTAG | 0.35 |
| TTTGGCACGTGCAGAT | -0.23 |
| ATAGACACGTGTGAGG | 0.06 |
| CATGTCACGTGTGTAG | 0.19 |
| TTGGTCACGTGAATCT | 0.27 |
| GTGTTCACGTGAGCGG | 0.41 |
| TTATGCACGTGTAATC | 0.06 |
| AATAACACGTGGGGTT | -0.03 |
| AAGAGCACGTGGGTTT | -0.16 |
| ATTCTCACGTGAGGTT | 0.32 |
| CTTTGCACGTGATTTG | 0.27 |
| AGCTTCACGTGCGGGT | 0.12 |
| TGAGACACGTGGAGAT | 0.11 |
| TGTGTCACGTGTTCCG | 0.12 |
| TGGGCCACGTGTGGGT | -0.02 |
| TGACGCACGTGGGGAG | -0.26 |
| TGTGGCACGTGGCTGT | -0.15 |

| Sequence | relative binding free energy [kcal/mol] |
| --- | --- |
| AGGGACACGTGTACTT | 0.12 |
| GTGATCACGTGTAGGC | 0.1 |
| GGTTCCACGTGTCGTG | 0.2 |
| TGGGGCACGTGGGACG | -0.15 |
| TGTATCACGTGGAGGT | 0.11 |
| TGTAGCACGTGGGTGT | -0.22 |
| ATGGTCACGTGCTGGT | 0.03 |
| AGTATCACGTGGTCTG | -0.07 |
| GGGCTCACGTGTGTCT | 0.3 |
| CGTAACACGTGGGGGA | -0.16 |
| CTTAGCACGTGGGAGT | -0.17 |
| CCTTGCACGTGGGGTA | -0.13 |
| AGTGGCACGTGTGGGG | -0.01 |
| TTGTTCACGTGAAAAA | 0.31 |
| CCGGGCACGTGAGTTG | 0.14 |
| CTTGTCACGTGTGTGT | 0.1 |
| TAGGTCACGTGTTATC | -0.01 |
| GTGGCCACGTGTGGAA | -0.07 |
| AAACGCACGTGTTAGT | 0.17 |
| CGGGGCACGTGAGGGA | 0.1 |
| TTTCGCACGTGGAGGT | 0.03 |
| TTCTTCACGTGTAATG | 0.19 |
| TCGTTCACGTGTATAG | 0.33 |

| Sequence | relative binding free energy [kcal/mol] |
| --- | --- |
| AGTTGCACGTGTATCG | -0.01 |
| GGTTGCACGTGGACAG | 0.09 |
| TTTTTCACGTGGGTAG | 0.28 |
| GGCTACACGTGGTTAT | 0.07 |
| GTAGTCACGTGGTAAG | 0.15 |
| GGCGGCACGTGGTTAT | -0.12 |
| TGTAGCACGTGGAGGG | -0.08 |
| AGTTGCACGTGAGATT | 0.18 |
| CTAATCACGTGGGCGT | 0.18 |
| CGGGTCACGTGGTCGA | -0.07 |
| CAGCGCACGTGGTGTA | -0.17 |
| AGGACCACGTGTTTTG | 0.05 |
| CGGCTCACGTGTTAGG | 0.31 |
| TCCTGCACGTGGGCGT | -0.05 |
| GTGAACACGTGGTGGA | -0.06 |
| GGGAACACGTGACGGG | 0.15 |
| AATGGCACGTGTTTTC | -0.13 |
| TTAGGCACGTGGCTTA | -0.25 |
| ATGTTCACGTGTCTTG | 0.19 |
| ATAATCACGTGAATGT | 0.22 |
| TACGACACGTGGAGGT | -0.1 |
| GGGTTCACGTGTTTGC | 0.16 |
| ATAGTCACGTGTGCCT | 0.2 |

| Sequence | relative binding free energy [kcal/mol] |
| --- | --- |
| TTGTTCACGTGGGAAG | 0.19 |
| AATATCACGTGGGGGG | 0 |
| AGTTTCACGTGGGAAA | 0.06 |
| ATGCGCACGTGGGGAC | -0.2 |
| TAATTCACGTGTACTT | 0.13 |
| GGGGGCACGTGGCTTG | -0.14 |
| AGGGTCACGTGGAGTG | 0.11 |
| GTGATCACGTGGTGGA | 0.02 |
| GTGAGCACGTGGCGTG | -0.25 |
| GTCGGCACGTGTGATT | 0.15 |
| TATGTCACGTGCGGGG | -0.11 |
| GTTTGCACGTGGGATA | -0.16 |
| TGTTGCACGTGTCAGC | 0.01 |
| TAGGTCACGTGAGCGG | 0.19 |
| GGGAGCACGTGAGGGG | 0.16 |
| GTAGTCACGTGATGCG | 0.33 |
| CAAGTCACGTGCGTGG | 0.01 |
| TCGGGCACGTGGGCGT | -0.18 |
| TGGTCCACGTGGCGTT | -0.14 |
| TTTAGCACGTGTTCGT | -0.01 |
| AAAATCACGTGGGGGG | 0.06 |
| TTTCGCACGTGCGTGG | -0.15 |
| GTTTGCACGTGATATA | 0.03 |

| Sequence | relative binding free energy [kcal/mol] |
| --- | --- |
| ATTTTCACGTGTGTCT | 0.22 |
| GGGGTCACGTGGGTAC | 0.06 |
| CAGGCCACGTGGTCGG | -0.08 |
| AATAGCACGTGAGTGT | 0.21 |
| CATTACACGTGGTATG | 0.11 |
| TGTGTCACGTGTAAAT | 0.22 |
| TCGGGCACGTGGGGTC | -0.15 |
| TTCTTCACGTGGCGGA | 0.35 |
| TCGAGCACGTGTGTGT | -0.04 |
| TTGCACACGTGTATGT | -0.05 |
| TGCAACACGTGAAGGG | 0.34 |
| CTTTTCACGTGTGTAC | 0.34 |
| TATATCACGTGATGGT | 0.14 |
| ATGTACACGTGAGGGA | 0.19 |
| GTGTTCACGTGGGGGA | 0.27 |
| CCTGGCACGTGGGGTG | -0.41 |
| TGGGACACGTGTTAGA | 0.12 |
| TGTTGCACGTGATTCA | 0.16 |
| TAGTACACGTGATTGT | 0.04 |
| GCGTTCACGTGGTCTT | 0.25 |
| TGATTCACGTGTTAGA | 0.2 |
| TCTAGCACGTGTGTAT | -0.11 |
| TGAGACACGTGGGTAT | -0.1 |
